Molecules are shown by their SMILES. The whole screen tested about 48,000 compounds, of which about 120 (0.25%) were called active. Another 4% or so got no clear call; they are omitted. Calls follow the shape of the dose curve; as a rule, active = well fitted activation curve with a large enough effect; inconclusive = small, poorly fitted or top-dose-only effect, or another doubt; inactive = no such curve, though single readings can be large or run the other way. This is one part of the list.

A short description of this experiment: Primary qHTS for Identification of Small Molecule Activators of Huntingtin-Antisense Promoter Activity. Also: nearly all actives have a fitted effect of over 55% in size. The following applies: HEK293 HTT-AS promoter firefly luciferase reporter (activity 0% = vehicle and -100% = no light), 24 h; series mostly up to 57.5 µM; activity change, positive = activation: at the top concentration. Put shortly: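 Quantitative HTS used concentration series of up to 57.5 uM final on HEK293 luciferase reporter cells, 24 h at 37 degrees C. Readout was Dual-Glo firefly luminescence.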
In general terms: In qHTS, concentration-response curves come from the screen itself.
Regarding `COc1cc(/C=C(\C#N)c2nc3ccccc3[nH]2)ccc1OCc1ccccc1F`, the “activity change, positive = activation” value was inactive: -36.4%. Then `COc1ccc(CCC(=O)NCc2ccc3c(c2)CCN3C(=O)c2ccccc2)cc1`, with inactive: -14.4%; and `COc1c(Cl)cc(C(=O)N(Cc2ccccc2F)C2CCS(=O)(=O)C2)cc1Cl` (stereo not given), with inactive: -8.72%.

`CCC(Sc1nc(-c2ccc(F)cc2)nc2c1Cc1c(CO)cnc(C)c1O2)C(=O)Nc1ccc(F)cc1` (stereo not given): the “activity change, positive = activation” value was inactive: -11.2%.

On to `CCS(=O)(=O)N1CCc2cc(C(=O)N3CCN(c4ccccc4OC)CC3)ccc21`, for which the “activity change, positive = activation” value was inactive: -39.4%. Then `CC(C)(C)OC(=O)N1CCc2nc(N3CCN(c4ncccn4)CC3)ncc2C1`, with inactive: -5.66%; and `Cc1oc2cc3oc(=O)c(CC(=O)NCc4ccccc4)c(C)c3cc2c1C`, with inactive: -2.19%; and `CC1=C(CC(=O)O)c2cc(F)ccc2/C1=C\c1ccc(S(C)(=O)=O)cc1`, with inactive: -15.4%.

As to `Cc1ccc(-n2c(=O)c3sc4ccccc4c3n(C)c2=O)cc1F`, the “activity change, positive = activation” value was inactive: -4.1%. In the case of `COc1cccc(NC(=O)c2oc3ccccc3c2NC(=O)c2ccc(F)c(F)c2)c1` it was inactive: 22.5%. In the case of `O=C(CSc1nc2nccnc2c(=O)n1CCc1c[nH]c2ccccc12)Nc1ccccc1`, the “activity change, positive = activation” value was inactive: -31.2%. Then `O=C(NC1CC(=O)N(c2ccccc2)C1)C(c1ccccc1)c1ccccc1` (stereo not given), with inactive: -15.3%; and `O=C1CN(/N=C/c2ccc([N+](=O)[O-])o2)C(=O)N1`, with inactive: -25.4%; and `COC(=O)c1c(NC(=O)/C(C#N)=C/c2ccc(OC)cc2)sc2c1CCC2`, with inactive: -5.9%. In the case of `Cc1ccc(C(=O)N2CCCCC2)cc1NC(=O)c1nsc2ccccc12` it was inactive: -19.8%; in that of `Cc1c(CCNC(=O)c2ccc(Br)o2)sc2nc(-c3ccc(Cl)cc3)nn12`, inactive: -2.09%; in that of `COc1ccc(S(=O)(=O)N2CCC(N3CCN(Cc4ccc(F)cc4)C(=O)C3=O)CC2)cc1`, inactive: -12.2%. Then `CCc1ccc(C(=O)c2cn(CC(=O)Nc3cc(OC)ccc3OC)c3nc(C)ccc3c2=O)cc1`, with inactive: -29.8%; and `NS(=O)(=O)c1ccc(CCNC(=O)c2ccc3nc(CCc4ccccc4)oc3c2)cc1`, with inactive: 5.66%; and `Cc1cc2c(cc1S(=O)(=O)N(C)CC(=O)Nc1ccc(C#N)cc1)OCC(=O)N2`, with inactive: -29.6%. As to `CCOC(=O)c1c(S(=O)(=O)NCC(=O)Nc2ccc(C)c(N(C)C)c2)c(C)n(C)c1C`, the “activity change, positive = activation” value was inactive: -15%.

Regarding `Cn1c(=O)c2c(SCC(=O)NCc3ccco3)nc(-c3cccc(F)c3)nc2n(C)c1=O`, the “activity change, positive = activation” value was inactive: -8.34%. For the compound `Cc1ccc(S(=O)(=O)c2cn(CC(=O)Nc3ccccc3C)c3cc4c(cc3c2=O)OCO4)cc1`, the “activity change, positive = activation” value was inactive: -0.224%. Then `CCOc1ccc(CC(=O)Nc2c(C(=O)Nc3ccc(OC)cc3OC)oc3ccccc23)cc1`, with inactive: -0.0542%; and `C[C@H](N)[C@H](O)c1cccc(O)c1`, with inactive: -0.714%; and `COc1ccc(-c2nc3cc(C)ccn3c2NC(=O)c2ccc(F)cc2)cc1`, with inactive: 25.5%. In the case of `Cc1ccc(Cl)cc1NC(=O)C1CCCN(S(=O)(=O)c2cccc3cccnc23)C1` (stereo not given) it was inactive: -20.8%; in that of `CCC(=O)N1CCc2cc(Br)cc(S(=O)(=O)N3CCCC(C(=O)Nc4cccc(C)c4C)C3)c21` (stereo not given), inactive: -32.1%; in that of `Cc1ccccc1NC(=O)c1c(NC(=O)c2ccco2)sc2c1CCC(C(C)(C)C)C2` (stereo not given), inactive: -9.16%. Then `COc1ccccc1CNC(=O)CSc1nc2nc(C)c(Cc3ccccc3Cl)c(C)n2n1`, with inactive: 0.501%; and `COc1ccc(N2C(=O)CS(=O)(=O)C23C(=O)N(Cc2ccc(F)cc2)c2ccc(C)cc23)cc1` (stereo not given), with inactive: -16%. For `CC(=O)[C@@]1(O)CC[C@H]2[C@@H]3C[C@H](C)C4=CC(=O)CC[C@]4(C)[C@H]3CC[C@@]21C`, the “activity change, positive = activation” value is inactive: -26.7%. In the case of `COc1ccc(CCNC(=O)c2cccc(-n3cnc4cccnc43)c2C)cc1OC` it was inactive: -22.9%; in that of `CC(CNC(=O)CN1C(=O)COc2ccc(S(=O)(=O)N3CCCCCC3)cc21)c1ccccc1` (stereo not given), inactive: -33.7%; in that of `CCCCNC(=O)c1nn(-c2ccc(C)cc2)c(=O)n(C)c1=O`, inactive: 3.75%.

For `CCOC(=O)c1c(S(=O)(=O)N2CCCC(C(=O)Nc3cccc(C#N)c3)C2)c(C)n(C)c1C` (stereo not given), the “activity change, positive = activation” value is inactive: -15.9%. In the case of `Cc1ccccc1CNC(=O)c1cccc(NC(=O)N2CCSc3ncccc32)c1` it was inactive: -26.6%; in that of `CC(Oc1ccccc1)C(=O)Nc1ccc(OCc2cc(=O)n3ccsc3n2)cc1` (stereo not given), inactive: 2.59%; in that of `COc1cccc(NS(=O)(=O)c2ccc3c(c2)[C@H]2C=CC[C@H]2[C@@H](c2ccccc2Cl)N3)c1`, inactive: -27.6%. In the case of `COc1ccccc1NC(=O)CSc1nc2nccnc2c(=O)n1CCc1c[nH]c2ccccc12` it was inactive: -29.4%. In the case of `Cc1cccn2c(Nc3ccccc3)c(-c3cccs3)nc12` it was inactive: -12.3%; in that of `CCN(CC)CCNC(=O)CSc1nc2nc(C)c(Cc3ccccc3)c(C)n2n1`, inactive: 5.79%. For the compound `CN=C(NC#N)Nc1ccc(C2=NNC(=O)CC2C)cc1` (stereo not given), the “activity change, positive = activation” value is inactive: -7.68%. Then `Cc1[nH]c2ccccc2c1C(c1ccccc1)c1ccc(Cl)s1` (stereo not given), with inactive: -35.2%; and `CCOc1ccccc1NC(=O)CCn1cnnn1`, with inactive: 4.7%; and `COc1cccc(CNC(=O)Cc2ccc(NC(=O)N3CCSc4ncccc43)cc2)c1OC`, with inactive: -14.6%. With `Cc1cccc(N2CCN(C(=O)CN3C(=O)COc4ccc(S(=O)(=O)N5CCC(C)CC5)cc43)CC2C)c1` (stereo not given), the “activity change, positive = activation” value was inactive: -16.1%. In the case of `CC(C)c1nc2ccc(C(=O)NCCCN3CCN(c4cccc(Cl)c4)CC3)cc2o1` it was inactive: -16%; in that of `CCOC(=O)N1CCN(Cc2nc3cc([N+](=O)[O-])ccc3n2C(C)C)CC1`, inactive: -26.7%; in that of `CCOc1ccc(CCNC(=O)c2nc(-c3cccc(F)c3)n3c2CCCCC3)cc1OCC`, inactive: -20.2%. Then `CCOc1ccc(CNC(=O)c2cnc3sc(N4CCOCC4)nn3c2=O)cc1OC`, with inactive: -21.4%; and `Cc1cccc(N2CCN(C(=O)C3CCCN(S(=O)(=O)c4ccc(Br)s4)C3)CC2)c1C` (stereo not given), with inactive: -56.1%. Then `CCOC(=O)C1CCC(CN(Cc2ccc(Cl)cc2)S(=O)(=O)c2cc(Cl)cc(Cl)c2)CC1` (stereo not given), with inactive: -41%; and `Cc1ccc(-c2nnc(SCC(=O)c3ccc(Cl)cc3)n2-c2ccccc2)cc1`, with inactive: -11.9%; and `Cc1cccc(N2CCN(S(=O)(=O)c3ccc4c(c3)C(C(C)C)C(=O)N4)CC2)c1C` (stereo not given), with inactive: -86.1%.

With `CCOc1ccccc1NC(=O)C1CCN(S(=O)(=O)c2cc(Br)cc3c2N(C(C)=O)CC3)CC1`, the “activity change, positive = activation” value is inactive: -6.67%.

Take `COc1cccc(CN2CCCN(CC(=O)Nc3ccc4c(c3)OCCO4)S2(=O)=O)c1`: the “activity change, positive = activation” value is inactive: -4.69%. With `COc1cccc(N(Cc2nnc3n2CCCCC3)C(=O)Nc2ccccc2)c1`, the “activity change, positive = activation” value was inactive: -8.69%. Then `Cc1nc2nc(NC(=O)c3ccc(C(C)(C)C)cc3)[nH]n2c(=O)c1Cl`, with inactive: -6.97%; and `Cc1oc(-c2ccccc2F)nc1CSCC(=O)N1CCN(c2ccccc2)CC1`, with inactive: -63.9%; and `CCN(CC)CCOC(=O)C(Cc1cccc2ccccc12)CC1CCCO1` (stereo not given), with inactive: -18.3%. In the case of `CCOc1ccc(CNC(=O)c2ccc3c(c2)N(CC)CCS3)cc1` it was inactive: -2.91%; in that of `CCCCOc1ccc(C(=O)NCCc2sc(-c3ccc(OC)c(OC)c3)nc2C)cc1`, inactive: -19.4%; in that of `O=C(Nc1cccc(O)c1)c1cc2nc(-c3ccc(Br)cc3)cc(C(F)(F)F)n2n1`, inactive: -22.2%.

For `COc1ccc(N2CCN(C(=O)CSc3c4c(nc5ccc(Cl)cc35)CCCC4)CC2)cc1`, the “activity change, positive = activation” value was inactive: -24.4%.

For the compound `Cc1ccccc1CNc1nc(N(C)C)nc2c1cnn2C`, the “activity change, positive = activation” value is inactive: -21.2%.

As to `Cc1ccc(NC(=O)C2CCN(S(=O)(=O)c3ccc4[nH]c(=O)ccc4c3)CC2)cc1C`, the “activity change, positive = activation” value is inactive: -9.62%. Then `CCc1cccc(CC)c1NC(=O)Cn1c(=O)c(-c2cc(C)ccc2NC(C)=O)nc2ccccc21`, with inactive: -11.9%. In the case of `CCOc1ccc(CCNC(=O)Cn2c(-c3cccs3)cc3cc(F)ccc32)cc1OCC` it was inactive: -39.7%.

For `CCCc1cc(N2CCN(c3ccccc3)CC2)n2cnnc2n1`, the “activity change, positive = activation” value is inactive: -21.7%.

`CCc1ccc(CN(Cc2ccco2)c2cnc(S(C)(=O)=O)nc2C(=O)Nc2c(C)cccc2C)cc1`: the “activity change, positive = activation” value is inactive: -28.8%. Then `Cn1c(=NC(=O)c2ccc(S(=O)(=O)N3CCCC3)cc2)sc2cc(F)ccc21`, with inactive: -0.141%; and `CCc1ccccc1NCc1nnc2n1CCCCC2`, with inactive: -1.16%; and `O=C1COc2cc(S(=O)(=O)CCC(=O)N3CCN(c4ccccc4F)CC3)c(Cl)cc2N1`, with inactive: -19.4%.

As for `O=C(Cn1c(-c2cccs2)cc2ccccc21)N1CCN(c2ccccc2F)CC1`, the “activity change, positive = activation” value is inactive: -27.8%. In the case of `COc1ccc(NC(=O)CSC2=Nc3ccccc3C3=NC(CC(=O)NCc4ccco4)C(=O)N23)cc1` (stereo not given) it was inactive: -16.5%; in that of `O=C(CSc1nnc(-c2ccncc2)n1-c1ccccc1)Nc1ccc(Cl)c(Cl)c1`, inactive: -31.4%; in that of `CCN(C(=O)CSc1nnc(-c2cc(OC)c(OC)c(OC)c2)o1)c1ccccc1`, inactive: -27.4%. Then `Clc1ccc(CCNc2nc3ccccc3c3nc(-c4ccccc4)nn23)cc1`, with inactive: -8.72%; and `Cc1ccc(C(=O)N(Cc2ccco2)Cc2ccco2)cc1`, with inactive: -0.0852%.

Regarding `CCOc1cc(CNC(=O)c2ccccc2NC(=O)c2nsc3ccccc23)ccc1OC`, the “activity change, positive = activation” value was inactive: 16.7%. In the case of `CCOc1ccc(NC(=O)Cn2cc(C(=O)c3cccs3)c3ccccc32)cc1` it was inactive: -17.6%; in that of `CCOc1cccc(CC(=O)NCc2ccc3c(c2)CCN3C(=O)c2ccc(F)cc2)c1OCC`, inactive: -0.843%; in that of `CC1(C)S[C@@H]2[C@H](NC(=O)C(C(=O)O)c3ccccc3)C(=O)N2[C@H]1C(=O)O` (stereo not given in full), inactive: 3.33%. In the case of `CCOC(=O)OCC/C(SC(=O)OCC)=C(\C)N(C=O)Cc1cnc(C)nc1N` it was inactive: -6.7%; in that of `COc1cccc(CCNC(=O)c2cnc3sc(N4CCCCCC4)nn3c2=O)c1`, inactive: -5.91%; in that of `O=C(Nc1ccc2oc(-c3cccnc3)nc2c1)c1ccc(-c2cccc(Cl)c2)o1`, inactive: -33.1%. Consider `COc1ccc(S(=O)(=O)c2c(Nc3c(C)cccc3C)sc(C(=O)c3ccc4c(c3)OCO4)c2N)cc1`, for which the “activity change, positive = activation” value is inactive: -42.8%. Then `Cc1ccc(-n2nc3c(=O)n(CC(=O)NC(C)C)nc(C)c3c2C)cc1`, with inactive: -10.4%. In the case of `CCC(CC)C(=O)Nc1ccc2nc(SCc3ccccc3)sc2c1` it was inactive: -16.3%. Then `CS(=O)(=O)c1ncc(Cl)c(C(=O)Nc2c(C(=O)Nc3ccccc3)oc3ccccc23)n1`, with inactive: -3.55%; and `Cc1cccc(Nc2ncc(NC(=O)c3cccc(F)c3)c(Nc3cccc(C)c3)n2)c1`, with inactive: -28.9%; and `NCCc1nnc(SCc2ccc(Cl)cc2)o1`, with inactive: -7.29%. In the case of `COc1ccccc1C(=O)Nc1nc2ccc(S(=O)(=O)N3CCCC3)cc2s1`, the “activity change, positive = activation” value was inactive: 3.94%.

For `CCN(CC)C(=S)SSC(=S)N(CC)CC`, the activity change, positive = activation entry was “inactive”.

Source of the values: PubChem BioAssay AID1508624 (National Center for Advancing Translational Sciences (NCATS), 2021).
